Data: the supplement of paper PMC7826260
This is one part of the list. The data describe in vitro nicking of single-stranded DNA by Rep domains at 3 µM enzyme and 37 °C for 1 h; the strands have 90 letters, of which the middle is given. The score is log2 (uncut reads / reads without enzyme); uncut sequences lie near 0, cut ones below; no hit call is given. The scaling is to total reads; values above 0 arise when much of the pool is cut.

How the values were obtained:
Experiment in all cases: uncleaved DNA left, log2 of reads against the no-enzyme library (log2 ratio); higher = less cleavage (more negative = more Rep cleavage of the k-mer); sequences stand for … in CTCGTCCG…ACCGGAGA
[1] = tested on: T1, Rep nickase domain of Muscovy duck circovirus
T1 sequence (residues 1-111 of Rep, tag left off): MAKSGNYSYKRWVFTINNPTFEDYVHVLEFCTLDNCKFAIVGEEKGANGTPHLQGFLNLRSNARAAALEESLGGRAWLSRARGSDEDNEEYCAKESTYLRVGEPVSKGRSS
Protocol: (§1)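 A pool of 90-nt single-stranded DNAs with seven random bases just before the constant AC of the nick site (name = the seven bases) was cut by 3 µM recombinant His6-SUMO-tagged Rep nickase domain (300 nM DNA, 50 mM HEPES pH 8.0, 50 mM NaCl, 1 mM MnCl2, 1 h, 37 °C, three replicates). Uncut DNA was amplified and sequenced.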

[2] = tested on: T2, Rep nickase domain of banana bunchy top virus
T2 sequence (residues 1-94 of Rep, tag left off): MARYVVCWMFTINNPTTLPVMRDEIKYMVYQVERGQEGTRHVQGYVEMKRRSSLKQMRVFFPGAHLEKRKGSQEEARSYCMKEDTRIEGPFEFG
Protocol: as §1

[3] = tested on: T3, Rep nickase domain of cabbage leaf curl virus
T3 sequence (residues 1-116 of Rep, tag left off): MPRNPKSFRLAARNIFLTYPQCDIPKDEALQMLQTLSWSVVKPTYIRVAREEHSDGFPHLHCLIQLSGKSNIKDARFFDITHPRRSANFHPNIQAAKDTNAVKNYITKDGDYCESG
Protocol: as §1

[4] = tested on: T4, Rep nickase domain of chickpea chlorotic dwarf virus
T4 sequence (residues 1-124 of Rep, tag left off): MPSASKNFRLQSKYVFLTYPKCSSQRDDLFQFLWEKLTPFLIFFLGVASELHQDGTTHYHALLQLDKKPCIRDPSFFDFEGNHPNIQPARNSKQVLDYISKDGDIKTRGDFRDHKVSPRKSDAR
Protocol: as §1

[5] = tested on: T5, Rep nickase domain of faba bean necrotic yellows virus
T5 sequence (residues 1-98 of Rep, tag left off): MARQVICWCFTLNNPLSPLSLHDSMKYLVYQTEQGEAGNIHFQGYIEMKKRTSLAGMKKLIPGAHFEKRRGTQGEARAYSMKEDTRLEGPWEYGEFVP
Protocol: as §1

[6] = tested on: T6, Rep nickase domain of maize striate mosaic virus
T6 sequence (residues 1-117 of Rep, tag left off): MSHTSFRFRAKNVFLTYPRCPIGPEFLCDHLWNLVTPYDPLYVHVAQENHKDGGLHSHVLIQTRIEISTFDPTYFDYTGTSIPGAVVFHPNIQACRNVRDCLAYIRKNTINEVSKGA
Protocol: as §1

[7] = tested on: T7, Rep nickase domain of porcine circovirus 2
T7 sequence (residues 2-116 of Rep, tag left off): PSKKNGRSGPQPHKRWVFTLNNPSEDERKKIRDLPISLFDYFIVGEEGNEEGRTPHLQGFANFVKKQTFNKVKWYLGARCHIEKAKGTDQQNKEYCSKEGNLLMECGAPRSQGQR
Protocol: as §1

[8] = tested on: T8, Rep nickase domain of tomato golden mosaic virus
T8 sequence (residues 1-124 of Rep, tag left off): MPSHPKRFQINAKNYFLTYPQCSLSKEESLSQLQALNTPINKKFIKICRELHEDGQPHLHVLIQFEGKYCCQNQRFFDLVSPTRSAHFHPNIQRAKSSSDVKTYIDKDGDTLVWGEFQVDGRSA
Protocol: as §1

[9] = tested on: T9, Rep nickase domain of tomato yellow leaf curl virus
T9 sequence (residues 1-136 of Rep, tag left off): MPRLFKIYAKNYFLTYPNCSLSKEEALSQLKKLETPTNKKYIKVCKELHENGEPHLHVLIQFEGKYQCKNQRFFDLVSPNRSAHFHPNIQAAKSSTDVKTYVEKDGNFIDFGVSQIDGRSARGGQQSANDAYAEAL
Protocol: as §1

[10] = tested on: T10, Rep nickase domain of wheat dwarf virus
T10 sequence (residues 1-137 of Rep, tag left off): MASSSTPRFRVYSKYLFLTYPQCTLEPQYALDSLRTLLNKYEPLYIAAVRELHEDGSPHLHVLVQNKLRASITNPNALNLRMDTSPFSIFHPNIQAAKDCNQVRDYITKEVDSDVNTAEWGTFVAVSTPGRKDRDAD
Protocol: as §1

| Sequence | uncleaved DNA left (log2) [1] | uncleaved DNA left (log2) [2] | uncleaved DNA left (log2) [3] | uncleaved DNA left (log2) [4] | uncleaved DNA left (log2) [5] | uncleaved DNA left (log2) [6] | uncleaved DNA left (log2) [7] | uncleaved DNA left (log2) [8] | uncleaved DNA left (log2) [9] | uncleaved DNA left (log2) [10] |
| --- | --- | --- | --- | --- | --- | --- | --- | --- | --- | --- |
| ATATATT | -3.62 | -3.12 | -3.47 | -3.62 | -0.493 | -2.6 | -3.89 | -3.08 | 0.0325 | -3.55 |
| CTTTTCC | 0.00689 | 0.0258 | 0.0601 | -0.255 | -0.0292 | -0.554 | 0.0362 | -0.126 | 0.112 | 0.0583 |
| CGAGGTC | 0.197 | 0.198 | 0.364 | 0.564 | 0.0636 | 0.377 | 0.0258 | 0.215 | 0.106 | 0.14 |
| CAGTGGT | -0.0598 | -0.36 | 0.153 | 1.02 | -0.176 | 1.36 | -3.2 | 0.107 | -0.0777 | 0.0259 |
| AAGTATT | -3.89 | -4.19 | -2.8 | -3.59 | -3.63 | 0.232 | -4.35 | -1.24 | -0.217 | -1.08 |
| GAGGATC | -0.0267 | 0.0647 | 0.614 | 1.52 | 0.057 | 1.84 | 0.096 | -0.0261 | -0.133 | 0.12 |
| GGGACCC | -0.0869 | 0.0829 | 0.782 | 1.99 | -0.157 | 2.16 | 0.0909 | -0.0681 | -0.0993 | 0.126 |
| TTCAGGT | 0.0363 | 0.0833 | 0.378 | 1.21 | 0.0906 | 1.83 | 0.0646 | 0.0616 | -0.0308 | 0.0226 |
| GAAAAAT | -0.0486 | 0.0194 | -0.217 | -1.52 | 0.0959 | 1.05 | -0.144 | -0.0895 | 0.0215 | 0.00906 |
| GTTACGA | 0.0273 | 0.109 | 0.216 | 0.669 | 0.0714 | 1.28 | 0.0836 | -0.00701 | 0.00798 | 0.0945 |
| AGAAAAA | 0.0264 | 0.0978 | 0.25 | 0.342 | -0.00159 | -0.231 | 0.18 | 0.0781 | -0.045 | 0.242 |
| GACAACT | 0.000466 | -0.0692 | 0.0985 | -2.46 | 0.0186 | 0.57 | -1.33 | -0.0728 | -0.0155 | 0.0422 |
| CCGTGAC | 0.127 | 0.122 | 0.372 | 0.615 | 0.154 | 0.558 | 0.118 | -0.0238 | 0.000702 | -0.159 |
| CCCGCGG | -0.0183 | 0.0459 | 0.462 | 1.29 | 0.067 | 1.72 | 0.00937 | 0.133 | -0.221 | 0.0938 |
| CGTTAAA | 0.0337 | 0.0432 | -0.0122 | -0.074 | -0.0211 | -0.415 | 0.0478 | 0.114 | 0.0368 | 0.00272 |
